The supplement of paper PMC9446081
The campaign covered roughly 39,000 compounds. About 220 (0.56%) showed activity. This is one part of the list.
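Note: static incubation at 37 °C against the wild-type strain, values averaged over two biological replicates.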

What follows are compounds tested on Escherichia coli K-12 BW25113 (assay: relative growth (OD600 normalised to plate interquartile mean) (fraction); higher = less growth inhibition, active = 0.2 or less). Conditions: 50 µM; LB; incubation time: overnight (16-24 h).
In the case of `CN1CCN(C(=O)C[C@H]2C=C[C@@H](NC(=O)Nc3ccccc3F)[C@H](CO)O2)CC1`, the relative growth is reported as inactive: 0.994.
With `C[C@@H]1CCCCO[C@@H](CN(C)C(=O)C2CCCCC2)[C@@H](C)CN([C@@H](C)CO)C(=O)c2cc(NS(=O)(=O)c3ccccc3)ccc2O1` the relative growth was inactive: 0.998.
`C[C@@H]1CCCCO[C@@H](CN(C)C(=O)c2ccncc2)[C@@H](C)CN([C@@H](C)CO)C(=O)c2cc(NC(=O)NC3CCCCC3)ccc2O1` was tested, and the relative growth was inactive: 1.02.
`COc1ccc(NC(=O)Nc2ccc3c(c2)C(=O)N([C@@H](C)CO)C[C@@H](C)[C@@H](CN(C)S(=O)(=O)c2ccccc2)OCCCC[C@@H](C)O3)cc1` was tested, and the relative growth was inactive: 1.01.
With `COc1ccc2c3c([nH]c2c1)[C@@H](CO)N(Cc1ccc(cc1)Cl)C[C@]13CCN(CC1)Cc1ccccc1` the relative growth was inactive: 0.976.
In the case of `C[C@@H]1CN([C@H](C)CO)C(=O)Cc2cc(NC(=O)C3CCCCC3)ccc2O[C@@H]1CN(C)S(C)(=O)=O`, the relative growth is reported as inactive: 1.02.
`COc1ccc2c(c1)n(CCN)c(=O)n2C(=O)[C@@H]1C[C@H](C)CC[C@H]1C(C)C` was tested, and the relative growth was inactive: 0.358.
For `Cc1ccc(S(=O)(=O)N2C[C@@H](O)COC[C@H]3O[C@@H](CC(=O)NCCCN(C)C)CC[C@@H]32)cc1`, the relative growth was inactive: 1.01.
In the case of `Cc1cnc2c(c1NCCN(C)C)c(=O)n(C)c(=O)n2C`, the relative growth is reported as inactive: 1.
In the case of `COc1ccc(C#Cc2cnc3c(c2)C(=O)N([C@H](C)CO)C[C@H](C)[C@@H](CN(C)CC2CCOCC2)O3)cc1`, the relative growth is reported as inactive: 1.03.
In the case of `O=C1C=CC(O)(CC(=O)OC[C@H]2O[C@@H](OC(=O)CC3(O)C=CC(=O)C=C3)[C@H](O)[C@@H](O)[C@H]2O)C=C1`, the relative growth is reported as inactive: 0.991.
With `O=C(C[C@H]1CC[C@H]2[C@@H](COC[C@@H](O)CN2C(=O)Nc2ccc(C(F)(F)F)cc2)O1)NCc1ccncn1` the relative growth was inactive: 1.01.
`CCCNC(=O)N1C[C@]2(CCN(CC2)S(=O)(=O)c2ccccc2)c2c(n(c3cc(ccc23)OC)C)[C@H]1CO` was tested, and the relative growth was inactive: 1.01.
In the case of `C[C@@H]1CN([C@@H](C)CO)C(=O)Cc2cc(NC(=O)CCN3CCOCC3)ccc2O[C@@H]1CN(C)S(=O)(=O)c1ccc(F)cc1`, the relative growth is reported as inactive: 1.01.
In the case of `Cc1ccc(S(=O)(=O)N(C)C[C@@H]2Oc3ccc(NS(=O)(=O)c4ccccc4)cc3C(=O)N([C@H](C)CO)C[C@H]2C)cc1`, the relative growth is reported as inactive: 1.01.
For `C[C@H](O)C#Cc1cnc2c(c1)C(=O)N([C@H](C)CO)C[C@@H](C)[C@@H](CN(C)C(=O)CN1CCOCC1)O2`, the relative growth was inactive: 1.
With `CCOC(=O)c1c(CN2CCN(c3ccccc3C)CC2)n(-c2ccccc2)c2cc(Br)c(O)cc12` the relative growth was inactive: 1.03.
In the case of `C[C@H]1CN([C@@H](C)CO)C(=O)c2cc(NC(=O)Cn3cnnn3)ccc2O[C@H]1CN(C)Cc1ccccc1`, the relative growth is reported as inactive: 0.967.
`COc1ccc(NC(=O)Nc2cccc3c2O[C@H](CN(C)Cc2ccc(Cl)c(Cl)c2)[C@H](C)CN([C@H](C)CO)C3=O)cc1` was tested, and the relative growth was inactive: 1.02.
`C[C@@H]1CN([C@H](C)CO)C(=O)c2cc(-c3cncnc3)cnc2O[C@H]1CN(C)C(=O)Nc1ccc2c(c1)OCO2` was tested, and the relative growth was inactive: 0.999.
With `Cn1cnc(S(=O)(=O)N[C@H]2C=C[C@@H](CC(=O)NCC3CC3)O[C@@H]2CO)c1` the relative growth was inactive: 0.994.
For `C[C@H]1CCCCO[C@@H](CN(C)C(=O)Nc2ccc3c(c2)OCO3)[C@@H](C)CN([C@@H](C)CO)C(=O)c2cc(NC(=O)c3ccncc3)ccc2O1`, the relative growth was inactive: 0.973.
`C[C@H](CO)N1C[C@H](C)[C@@H](CN(C)Cc2ccccn2)Oc2ncc(C#Cc3cccc(F)c3)cc2C1=O` was tested, and the relative growth was inactive: 1.
With `COc1ccc(C#Cc2cnc3c(c2)C(=O)N([C@H](C)CO)C[C@@H](C)[C@@H](CN(C)C(=O)CN(C)C)O3)cc1` the relative growth was inactive: 1.02.
In the case of `CC(C)NC(=O)N(C)C[C@@H]1OCCCC[C@H](C)Oc2ccc(NS(=O)(=O)c3cn(C)cn3)cc2C(=O)N([C@H](C)CO)C[C@@H]1C`, the relative growth is reported as inactive: 1.
`CC1CC(=O)NN=C1c1ccc(NN=C(C#N)C#N)cc1` (stereo unspecified) was tested, and the relative growth was inactive: 1.05.
With `N#CCCS(=O)(=O)c1ccc(N)cc1` the relative growth was inactive: 1.03.
In the case of `C=CCN(Cc1ccccc1)C(=O)[C@@H]1N(c2cccc(Cl)c2CO)C(=O)[C@H]2[C@H](C(=O)OCC)[C@@H]3C=C[C@]12O3`, the relative growth is reported as inactive: 1.04.
With `C[C@H](CO)N1C[C@H](C)[C@H](CN(C)C(=O)C2CCOCC2)Oc2ncc(C#Cc3ccccc3F)cc2C1=O` the relative growth was inactive: 1.01.
With `C[C@H](CO)N1C[C@H](C)[C@@H](CN(C)S(=O)(=O)c2ccc(F)cc2)Oc2ccc(NS(=O)(=O)c3ccc(F)cc3)cc2CC1=O` the relative growth was inactive: 0.981.
For `Cc1cc(C(=O)Nc2cccc3c2O[C@@H](CN(C)C(=O)Nc2c(C)noc2C)[C@H](C)CN([C@@H](C)CO)C3=O)n(C)n1`, the relative growth was inactive: 0.981.
With `Cc1noc(C)c1NC(=O)Nc1ccc2c(c1)C(=O)N([C@H](C)CO)C[C@H](C)[C@@H](CN(C)S(=O)(=O)c1cccs1)OCCCC[C@@H](C)O2` the relative growth was inactive: 0.979.
With `OCc1ccc2nccn2c1` the relative growth was inactive: 0.969.
In the case of `C[C@H]1CN([C@@H](C)CO)C(=O)Cc2cc(NC(=O)CCN3CCOCC3)ccc2O[C@@H]1CN(C)C(=O)Nc1ccc(F)cc1`, the relative growth is reported as inactive: 0.936.
In the case of `Cc1ccc(S(=O)(=O)N(C)C[C@@H]2Oc3ccc(NS(=O)(=O)c4ccc(F)cc4)cc3C(=O)N([C@H](C)CO)C[C@@H]2C)cc1`, the relative growth is reported as inactive: 1.08.
`C[C@H](CO)N1C[C@H](C)[C@@H](CN(C)Cc2ccncc2)Oc2ccc(NS(=O)(=O)c3cn(C)cn3)cc2C1=O` was tested, and the relative growth was inactive: 1.01.
For `C/C=C/c1ccc([C@H]2[C@@H](CO)N(S(=O)(=O)Cc3ccccc3)C23CN(C(=O)C2CCOCC2)C3)cc1`, the relative growth was inactive: 0.995.
In the case of `C[C@H](CO)N1C[C@H](C)[C@@H](CN(C)Cc2ccc(C(F)(F)F)cc2)OCCCC[C@H](C)Oc2ccc(NC(=O)Nc3ccc(C(F)(F)F)cc3)cc2C1=O`, the relative growth is reported as inactive: 1.03.
With `CN1CCN(C(=O)C[C@H]2CC[C@@H]3[C@H](COC[C@H](O)CN3CC3CCCC3)O2)CC1` the relative growth was inactive: 1.
`C=C1[C@H]2C[C@@H]3C(=C4[C@H](CO[C@@H]4[C@H]4CCCN4S(=O)(=O)c4ccccc4[N+](=O)[O-])[C@H]4C(=O)N(C)C(=O)[C@H]43)C[C@@H]2C(=O)N1C` was tested, and the relative growth was inactive: 0.938.
For `C[C@H]1CN([C@@H](C)CO)C(=O)c2cccc(NC(=O)Nc3ccc(C(F)(F)F)cc3)c2O[C@H]1CN(C)C(=O)NC1CCCCC1`, the relative growth was inactive: 0.913.
With `CN1C[C@@H](O)COC[C@@H]2O[C@@H](CC(=O)N3CCN(c4ccccc4)CC3)CC[C@H]21` the relative growth was inactive: 1.01.
In the case of `COc1ccc(NC(=O)N(C)C[C@H]2OCCCC[C@@H](C)Oc3ccc(NS(=O)(=O)c4cccs4)cc3C(=O)N([C@H](C)CO)C[C@@H]2C)cc1`, the relative growth is reported as inactive: 0.995.
`C[C@H](CO)N1C[C@H](C)[C@@H](CN(C)CC2CCOCC2)Oc2cc(-c3cccnc3)ccc2S1(=O)=O` was tested, and the relative growth was inactive: 0.961.
For `COc1ccc(S(=O)(=O)N2C[C@@H](O)COC[C@H]3O[C@@H](CC(=O)NCc4ccc(Cl)c(Cl)c4)CC[C@@H]32)cc1`, the relative growth was inactive: 1.02.
With `COC(=O)Nc1c(C)cc(C)cc1C` the relative growth was inactive: 1.
For `C[C@@H]1CCCCO[C@H](CN(C)Cc2ccc(C(F)(F)F)cc2)[C@H](C)CN([C@@H](C)CO)C(=O)c2cc(NC(=O)CCC(F)(F)F)ccc2O1`, the relative growth was inactive: 1.02.
In the case of `COc1ccc(NC(=O)N(C)C[C@@H]2Oc3ccc(NC(=O)Cn4cnnn4)cc3CC(=O)N([C@@H](C)CO)C[C@H]2C)cc1`, the relative growth is reported as inactive: 0.993.
`Nc1nc(=O)n([C@@H]2CS[C@H](CO)O2)cc1F` was tested, and the relative growth was inactive: 0.988.
For `C[C@H]1CCCCO[C@H](CN(C)C)[C@@H](C)CN([C@@H](C)CO)C(=O)c2cc(NC(=O)CCCCCC(=O)Nc3ccccc3N)ccc2O1`, the relative growth was inactive: 0.988.
For `C[C@H](CO)N1C[C@H](C)[C@@H](CN(C)S(C)(=O)=O)Oc2c(NC(=O)CCC(F)(F)F)cccc2C1=O`, the relative growth was inactive: 0.965.
In the case of `CCC[C@@H]1C[C@@H](C(=O)N[C@@H]([C@H]2O[C@H](SC)[C@H](O)[C@@H](O)[C@H]2O)[C@@H](C)O)N(C)C1`, the relative growth is reported as inactive: 0.936.
For `C[C@@H]1CN([C@H](C)CO)C(=O)c2cc(NC(=O)c3ccccc3)ccc2O[C@@H](C)CCCCO[C@@H]1CN(C)Cc1ccc2c(c1)OCO2`, the relative growth was inactive: 1.02.
`CN(C)CCCNC(=O)C[C@H]1CC[C@H]2[C@@H](COc3ccc(NC(=O)c4ccc5c(c4)OCO5)cc3C(=O)N2C)O1` was tested, and the relative growth was inactive: 0.995.
`C[C@@H]1CN([C@H](C)CO)C(=O)c2cccc(NS(=O)(=O)c3ccc(F)cc3)c2O[C@H]1CN(C)Cc1ccc(Cl)c(Cl)c1` was tested, and the relative growth was inactive: 0.985.
`C[C@@H]1CN([C@@H](C)CO)C(=O)c2cc(NS(=O)(=O)c3ccc(Cl)cc3)ccc2O[C@@H]1CN(C)S(C)(=O)=O` was tested, and the relative growth was inactive: 0.979.
In the case of `C[C@H](CO)N1C[C@H](C)[C@H](CN(C)Cc2ccc(Cl)c(Cl)c2)OCCCC[C@H](C)Oc2ccc(NC(=O)Nc3ccccc3)cc2C1=O`, the relative growth is reported as inactive: 1.07.
In the case of `Nc1nc(=O)[nH]cc1Br`, the relative growth is reported as inactive: 1.04.
With `CN1C(=O)C[C@@H]2[C@@H]1CCN2C(=O)c1ccc[nH]1` the relative growth was inactive: 0.983.
With `C[C@H]1CCCCO[C@@H](CN(C)C(=O)Cc2ccccc2)[C@@H](C)CN([C@@H](C)CO)C(=O)c2cc(NS(=O)(=O)c3cccs3)ccc2O1` the relative growth was inactive: 0.976.
For `C[C@@H]1CCCCO[C@H](CN(C)S(=O)(=O)c2cn(C)cn2)[C@@H](C)CN([C@@H](C)CO)C(=O)c2cc(NC(=O)CCCN(C)C)ccc2O1`, the relative growth was inactive: 0.971.
